Some of the results follow.
How the values were obtained:
Test in all cases: glycan array binding signal (z-score within array); higher = stronger binding
Settings in all cases: glycan notation: IUPAC condensed, linker removed
[1] = molecular target: Gal(b1-4)GlcNAc(b1-3)Gal(b1-4)GlcNAc(b1-3)Gal(b1-4)GlcNAc(b1-3)Gal(b1-4)GlcNAc(b1-2)Man(a1-3)[Gal(b1-4)GlcNAc(b1-3)Gal(b1-4)GlcNAc(b1-3)Gal(b1-4)GlcNAc(b1-3)Gal(b1-4)GlcNAc(b1-2)Man(a1-6)]Man(b1-4)GlcNAc(b1-4)[Fuc(a1-6)]GlcNAc
Procedure, shortened: (§1)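 The binding signal is a Z-score computed within each array. Data were drawn from 3228 arrays in the Consortium for Functional Glycomics database, restricted to those with a known protein sequence. Scores were averaged over arrays of the same protein sequence at different concentrations or buffers, and over linkers, and negative values can be taken as non-binding.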

[2] = molecular target: Gal(b1-4)GlcNAc(b1-3)Gal(b1-4)GlcNAc(b1-3)Gal(b1-4)GlcNAc(b1-3)Gal(b1-4)GlcNAc(b1-2)[Gal(b1-4)GlcNAc(b1-3)Gal(b1-4)GlcNAc(b1-3)Gal(b1-4)GlcNAc(b1-3)Gal(b1-4)GlcNAc(b1-6)]Man(a1-6)[Gal(b1-4)GlcNAc(b1-3)Gal(b1-4)GlcNAc(b1-3)Gal(b1-4)GlcNAc(b1-3)Gal(b1-4)GlcNAc(b1-2)Man(a1-3)]Man(b1-4)GlcNAc(b1-4)[Fuc(a1-6)]GlcNAc
Procedure, shortened: as §1

[3] = molecular target: Gal(b1-4)GlcNAc(b1-3)Gal(b1-4)GlcNAc(b1-3)Gal(b1-4)GlcNAc(b1-3)Gal(b1-4)GlcNAc(b1-3)Gal(b1-4)GlcNAc(b1-2)Man(a1-3)[Gal(b1-4)GlcNAc(b1-3)Gal(b1-4)GlcNAc(b1-3)Gal(b1-4)GlcNAc(b1-3)Gal(b1-4)GlcNAc(b1-3)Gal(b1-4)GlcNAc(b1-2)Man(a1-6)]Man(b1-4)GlcNAc(b1-4)GlcNAc
Procedure, shortened: as §1

[4] = molecular target: Gal(b1-4)GlcNAc(b1-3)Gal(b1-4)GlcNAc(b1-3)Gal(b1-4)GlcNAc(b1-3)Gal(b1-4)GlcNAc(b1-3)Gal(b1-4)GlcNAc(b1-2)Man(a1-3)[Gal(b1-4)GlcNAc(b1-3)Gal(b1-4)GlcNAc(b1-3)Gal(b1-4)GlcNAc(b1-3)Gal(b1-4)GlcNAc(b1-3)Gal(b1-4)GlcNAc(b1-2)Man(a1-6)]Man(b1-4)GlcNAc(b1-4)[Fuc(a1-6)]GlcNAc
Procedure, shortened: as §1

[5] = molecular target: Gal(b1-4)GlcNAc(b1-3)Gal(b1-4)GlcNAc(b1-3)Gal(b1-4)GlcNAc(b1-3)Gal(b1-4)GlcNAc(b1-3)Gal(b1-4)GlcNAc(b1-2)[Gal(b1-4)GlcNAc(b1-3)Gal(b1-4)GlcNAc(b1-3)Gal(b1-4)GlcNAc(b1-3)Gal(b1-4)GlcNAc(b1-3)Gal(b1-4)GlcNAc(b1-6)]Man(a1-6)[Gal(b1-4)GlcNAc(b1-3)Gal(b1-4)GlcNAc(b1-3)Gal(b1-4)GlcNAc(b1-3)Gal(b1-4)GlcNAc(b1-3)Gal(b1-4)GlcNAc(b1-2)Man(a1-3)]Man(b1-4)GlcNAc(b1-4)[Fuc(a1-6)]GlcNAc
Procedure, shortened: as §1

[6] = molecular target: Gal(b1-4)GlcNAc(b1-3)Gal(b1-4)GlcNAc(b1-3)Gal(b1-4)GlcNAc(b1-3)Gal(b1-4)GlcNAc(b1-3)Gal(b1-4)GlcNAc(b1-3)Gal(b1-4)GlcNAc(b1-2)Man(a1-3)[Gal(b1-4)GlcNAc(b1-3)Gal(b1-4)GlcNAc(b1-3)Gal(b1-4)GlcNAc(b1-3)Gal(b1-4)GlcNAc(b1-3)Gal(b1-4)GlcNAc(b1-3)Gal(b1-4)GlcNAc(b1-2)Man(a1-6)]Man(b1-4)GlcNAc(b1-4)GlcNAc
Procedure, shortened: as §1

[7] = molecular target: Gal(b1-4)GlcNAc(b1-3)Gal(b1-4)GlcNAc(b1-3)GalNAc
Procedure, shortened: as §1

[8] = molecular target: Gal(b1-4)GlcNAc(b1-3)Gal(b1-4)GlcNAc(b1-3)[Gal(b1-4)GlcNAc(b1-3)Gal(b1-4)GlcNAc(b1-6)]GalNAc
Procedure, shortened: as §1

[9] = molecular target: Gal(b1-4)GlcNAc(b1-3)Gal(b1-4)GlcNAc(b1-6)[Gal(b1-3)]GalNAc
Procedure, shortened: as §1

[10] = molecular target: Gal(b1-4)GlcNAc(b1-3)Gal(b1-4)[Fuc(a1-3)]GlcNAc(b1-3)Gal(b1-4)[Fuc(a1-3)]GlcNAc
Procedure, shortened: as §1

[11] = molecular target: Gal(b1-4)GlcNAc(b1-3)GalNAc
Procedure, shortened: as §1

[12] = molecular target: Gal(b1-4)GlcNAc(b1-3)[Fuc(a1-3)GlcNAc(b1-6)]Gal(b1-4)Glc
Procedure, shortened: as §1

[13] = molecular target: Gal(b1-4)GlcNAc(b1-3)[Gal(b1-4)GlcNAc(b1-6)]Gal(b1-4)GlcNAc
Procedure, shortened: as §1

[14] = molecular target: Gal(b1-4)GlcNAc(b1-3)[GlcNAc(b1-6)]Gal(b1-4)GlcNAc
Procedure, shortened: as §1

[15] = molecular target: Gal(b1-4)GlcNAc(b1-6)Gal(b1-4)GlcNAc
Procedure, shortened: as §1

[16] = molecular target: Gal(b1-4)GlcNAc(b1-6)GalNAc
Procedure, shortened: as §1

[17] = molecular target: Gal(b1-4)GlcNAc(b1-6)[Gal(b1-3)]GalNAc
Procedure, shortened: as §1

[18] = molecular target: Gal(b1-4)GlcNAc(b1-6)[Gal(b1-4)GlcNAc(b1-3)]GalNAc
Procedure, shortened: as §1

Gal(b1-4)GlcNAc6P = molecular target: Gal(b1-4)GlcNAc6P
Procedure, shortened: as §1

Gal(b1-6)Gal = molecular target: Gal(b1-6)Gal
Procedure, shortened: as §1

Gal3S(b1-3)GalNAc = molecular target: Gal3S(b1-3)GalNAc
Procedure, shortened: as §1

Gal3S(b1-3)GlcNAc = molecular target: Gal3S(b1-3)GlcNAc
Procedure, shortened: as §1

[19] = molecular target: Gal3S(b1-3)[Fuc(a1-4)]GlcNAc
Procedure, shortened: as §1

Gal3S(b1-4)Glc = molecular target: Gal3S(b1-4)Glc
Procedure, shortened: as §1

Gal3S(b1-4)Glc6S = molecular target: Gal3S(b1-4)Glc6S
Procedure, shortened: as §1

Gal3S(b1-4)GlcNAc = molecular target: Gal3S(b1-4)GlcNAc
Procedure, shortened: as §1

[20] = molecular target: Gal3S(b1-4)[Fuc(a1-3)]Glc6S
Procedure, shortened: as §1

[21] = molecular target: Gal3S(b1-4)[Fuc(a1-3)]GlcNAc
Procedure, shortened: as §1

[22] = molecular target: Gal3S(b1-4)[Fuc(a1-3)]GlcNAc6S
Procedure, shortened: as §1

Gal3S4S(b1-4)GlcNAc = molecular target: Gal3S4S(b1-4)GlcNAc
Procedure, shortened: as §1

Gal3S6S(b1-4)GlcNAc = molecular target: Gal3S6S(b1-4)GlcNAc
Procedure, shortened: as §1

Gal3S6S(b1-4)GlcNAc6S = molecular target: Gal3S6S(b1-4)GlcNAc6S
Procedure, shortened: as §1

Gal4S(b1-4)GlcNAc = molecular target: Gal4S(b1-4)GlcNAc
Procedure, shortened: as §1

Gal4S6S(b1-4)GlcNAc = molecular target: Gal4S6S(b1-4)GlcNAc
Procedure, shortened: as §1

Gal6P(b1-4)GlcNAc = molecular target: Gal6P(b1-4)GlcNAc
Procedure, shortened: as §1

Gal6S(b1-3)GlcNAc = molecular target: Gal6S(b1-3)GlcNAc
Procedure, shortened: as §1

Gal6S(b1-3)GlcNAc6S = molecular target: Gal6S(b1-3)GlcNAc6S
Procedure, shortened: as §1

Gal6S(b1-4)Glc = molecular target: Gal6S(b1-4)Glc
Procedure, shortened: as §1

B1: Cohesin-hMARCO (Homo sapiens) (protein)
chain: LDDLDAVRIKVDTVNAKPGDTVRIPVRFSGIPSKGIANCDFVYSYDPNVLEIIEIEPGDIIVDPNPDKSFDTAVYPDRKIIVFLFAEDSGTGAYAITKDGVFATIVAKVKEGAPNGLSVIKFVEVGGFANNDLVEQKTQFFDGGANVGDTTEPATPTTPVTTPTTTDDLDAASVRIVGSSNRGRAEVYYSGTWGTICDDEWQNSDAIVFCRMLGYSKGRALYKVGAGTGQIWLDNVQCRGTESTLWSCTKNSWGHHDCSHEEDAGVECSVHHHHHH
glycan array binding signal (z-score) [1]: 0.123
glycan array binding signal (z-score) [2]: -0.11
glycan array binding signal (z-score) [3]: -0.199
glycan array binding signal (z-score) [4]: -0.04
glycan array binding signal (z-score) [5]: 0.985
glycan array binding signal (z-score) [6]: 0.192
glycan array binding signal (z-score) [7]: -0.386
glycan array binding signal (z-score) [8]: -0.089
glycan array binding signal (z-score) [9]: -0.364
glycan array binding signal (z-score) [10]: -0.369
glycan array binding signal (z-score) [11]: -0.406
glycan array binding signal (z-score) [12]: -0.489
glycan array binding signal (z-score) [13]: -0.454
glycan array binding signal (z-score) [14]: -0.33
glycan array binding signal (z-score) [15]: -0.387
glycan array binding signal (z-score) [16]: 1.21
glycan array binding signal (z-score) [17]: -0.383
glycan array binding signal (z-score) [18]: 0.033
glycan array binding signal (z-score) (Gal(b1-4)GlcNAc6P): -0.353
glycan array binding signal (z-score) (Gal(b1-6)Gal): -0.13
glycan array binding signal (z-score) (Gal3S(b1-3)GalNAc): 0.13
glycan array binding signal (z-score) (Gal3S(b1-3)GlcNAc): 0.286
glycan array binding signal (z-score) [19]: 0.294
glycan array binding signal (z-score) (Gal3S(b1-4)Glc): 3.03
glycan array binding signal (z-score) (Gal3S(b1-4)Glc6S): 1.61
glycan array binding signal (z-score) (Gal3S(b1-4)GlcNAc): 0.683
glycan array binding signal (z-score) [20]: 0.121
glycan array binding signal (z-score) [21]: -0.386
glycan array binding signal (z-score) [22]: 3.73
glycan array binding signal (z-score) (Gal3S4S(b1-4)GlcNAc): -0.103
glycan array binding signal (z-score) (Gal3S6S(b1-4)GlcNAc): 1.16
glycan array binding signal (z-score) (Gal3S6S(b1-4)GlcNAc6S): 0.981
glycan array binding signal (z-score) (Gal4S(b1-4)GlcNAc): -0.154
glycan array binding signal (z-score) (Gal4S6S(b1-4)GlcNAc): -0.129
glycan array binding signal (z-score) (Gal6P(b1-4)GlcNAc): -0.306
glycan array binding signal (z-score) (Gal6S(b1-3)GlcNAc): -0.45
glycan array binding signal (z-score) (Gal6S(b1-3)GlcNAc6S): 1.09
glycan array binding signal (z-score) (Gal6S(b1-4)Glc): 0.146

From the supplement of paper PMC8728848
